# PubChem BioAssay AID1477 (National Center for Advancing Translational Sciences (NCATS), 2009)
# Screen size: about 230,000 compounds; fewer than 10 were called active. Inconclusive means that the source gave no clear call. Such entries were picked first, then a sample of the others. The call rests on the fitted dose curve; in most records, active means well fitted curve in the direction sought with a large enough effect; inconclusive means small, poorly fitted or top-dose-only effect, or effect the other way, or another doubt; inactive means no such curve, though single readings can be large or run the other way. No potency is given beside an inconclusive call; the fits are too rough.
# Biological target: Runt-related transcription factor 1 (Homo sapiens) + Core-binding factor subunit beta (Homo sapiens) (UniProt Q01196+Q13951)
# Assay: qHTS Assay for Compounds Blocking the Interaction Between CBF-beta and RUNX1 for the Treatment of Acute Myeloid Leukemia; on activity, negative = inhibition: % of control where 0% means no effect
# Settings: AlphaScreen CBFb-His/RUNX1-biotin binding, biochemical; activity, negative = inhibition: at 59.8 µM (top of the series) unless noted
# Procedure, shortened: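 Inhibition was taken as any reduction in AlphaScreen signal from the CBF-beta–RUNX1 pair (His and biotin tags, 30 nM each), measured after compound (15 min) and bead (90 min) incubations at room temperature.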
# Sequence of UniProt Q01196 (Q01196 whole entry, looked up): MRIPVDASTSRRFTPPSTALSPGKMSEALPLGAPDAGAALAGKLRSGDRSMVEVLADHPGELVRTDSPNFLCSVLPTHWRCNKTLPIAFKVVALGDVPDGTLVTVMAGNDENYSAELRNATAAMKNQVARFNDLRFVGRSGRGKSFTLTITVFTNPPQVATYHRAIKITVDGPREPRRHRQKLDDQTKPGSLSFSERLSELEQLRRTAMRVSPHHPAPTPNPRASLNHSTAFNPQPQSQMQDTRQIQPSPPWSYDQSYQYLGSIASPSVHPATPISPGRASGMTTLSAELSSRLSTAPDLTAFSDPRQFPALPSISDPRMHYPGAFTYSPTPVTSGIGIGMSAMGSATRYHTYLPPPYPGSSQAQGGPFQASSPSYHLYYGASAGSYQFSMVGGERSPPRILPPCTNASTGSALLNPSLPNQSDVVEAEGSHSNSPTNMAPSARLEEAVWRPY
# Sequence of UniProt Q01196 (Q13951 whole entry, looked up): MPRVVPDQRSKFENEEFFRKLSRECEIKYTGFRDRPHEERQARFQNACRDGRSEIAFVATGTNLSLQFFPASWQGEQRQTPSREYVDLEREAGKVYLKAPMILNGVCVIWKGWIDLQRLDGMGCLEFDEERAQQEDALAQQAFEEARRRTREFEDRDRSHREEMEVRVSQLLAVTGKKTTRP
SMILES,"activity, negative = inhibition",Potency
O=[N+]([O-])c1cc2c(cc1/C=N/NS(=O)(=O)c1ccc(Br)cc1)OCO2,inactive: 10.5%,
COC(=O)C1CCCN1S(=O)(=O)c1ccc2ccccc2c1 (centres undefined),,"inconclusive [activator, single point]"
Cc1occc1-c1nnc(SCC(=O)NCCc2ccccc2)n1Cc1ccccc1,,"inconclusive [inhibitor, single point]"
Cc1ccc(NC(=O)c2sc3nc(C)nc(N4CCN(c5ccccn5)CC4)c3c2C)c(C)c1,inactive: -6.94%,
COC(=O)CC1(c2ccccc2)C(=O)c2ccccc2C1=O,inactive: 9.32%,
O=c1n(Cc2ccccc2)c2cc(Cl)cnc2n1Cc1ccccc1,,"inconclusive [activator, single point]"
CCOC(=O)C(C)Sc1nc(-c2ccccn2)ncc1OC (centres undefined),,"inconclusive [inhibitor, partial curve, poor fit]"
Cc1ccc(Nc2nc(N)c([N+](=O)[O-])c(N3CCC(C)CC3)n2)cc1C,,"inconclusive [inhibitor, partial curve]"
CCOC(=O)c1oc2ccccc2c1CSc1nnnn1-c1ccc(C)cc1,,"inconclusive [activator, single point]"
CCOC(=O)/C(C#N)=C/c1ccc(N2CCCCC2)cc1,,"inconclusive [activator, partial curve]"
S=C1NC2(CCCCC2)Nc2ccccc21,inactive: -3.09%,
CCOc1ccc(NC(=O)C(=O)N/N=C/c2ccccc2F)cc1,,"inconclusive [activator, partial curve, poor fit]"
COc1ccc(NC(=O)C2=C(C)C(=O)OC23CCC(C)CC3)cc1Cl (centres undefined),,"inconclusive [inhibitor, partial curve]"
Nc1[nH]n(-c2ccccc2)c(=O)c1N=Nc1ccc2ncsc2c1,,"inconclusive [inhibitor, partial curve]"
Cc1cc(C(=O)Nc2ccccn2)cs1,inactive: 8.14%,
O=C1c2ccccc2NC(c2ccccc2)N1/N=C/c1ccccc1 (centres undefined),inactive: 7.54%,
CC1(c2nnc(-c3ccc(Cl)cc3)o2)CC(c2c(Cl)cccc2Cl)=NO1 (centres undefined),,"inconclusive [activator, partial curve]"
CC(=O)C1=C(C)NC(SCC(=O)c2ccc(Cl)cc2)=C(C#N)C1CC(C)C (centres undefined),inactive: 10.4%,
CN(C)c1ccc(/C=C/c2cccc[n+]2[O-])cc1,inactive: 0.111%,
O=[N+]([O-])c1ccc(-c2cnc(SC(c3ccccc3)c3ccccc3)[nH]2)cc1,,"inconclusive [inhibitor, single point]"
Cc1ccc(N2C(=O)NC(=O)/C(=C/C=C/c3ccco3)C2=O)cc1,,"inconclusive [inhibitor, single point]"
O=C(COC(=O)/C=C/c1ccco1)Nc1ncc(C(F)(F)F)cc1Cl,,"inconclusive [inhibitor, partial curve]"

SMILES,"activity, negative = inhibition",Potency
CC[C@@H]1C(c2ccccc2)=NN(c2ccccc2)[C@H]1C(=O)N1CCOC1=O,,"inconclusive [activator, partial curve]"
O=c1[nH]c(S)c(/C=C2\C=Nc3ccccc32)s1,,"inconclusive [inhibitor, partial curve]"
CCOC(=O)c1ccc(N2C(=O)c3n[nH]c(-c4ccco4)c3C2c2ccc([N+](=O)[O-])cc2)cc1 (centres undefined),,"inconclusive [inhibitor, single point]"
CCCn1c(-c2ccc(F)cc2)nc2c(NCCN3CCCC3)nc(C)nc21,inactive: 14.5%,
CCN1CCN(Cc2ccc(NC(=O)Nc3ccc(OC)cc3)cc2)CC1,,"inconclusive [inhibitor, single point]"
CCn1c2ccccc2c2cc(N)ccc21,,"inconclusive [inhibitor, single point]"
CN(C)c1ccc(Cc2ccc(N(C)C)cc2)cc1,,"inconclusive [inhibitor, partial curve]"
c1ccc(N2N=C(c3cccs3)CC2c2ccco2)cc1 (centres undefined),,"inconclusive [activator, partial curve]"
N#CC1(C#N)COC23CCCCC2C1(C#N)C(=N)O3 (centres undefined),,"inconclusive [inhibitor, single point]"
Cc1cc(NS(=O)(=O)c2ccc(NS(=O)(=O)c3ccc(CC(C)C)cc3)cc2)nc(C)n1,inactive: 3.75%,
CN(C)C(=S)SSC(=S)N(C)C,,"inconclusive [inhibitor, partial curve]"
CCc1ccc(C2=NNC(=Nc3cccc(S(=O)(=O)N(C)C)c3)SC2)cc1,,"inconclusive [inhibitor, partial curve]"
O=C(N/N=C/c1cc(Cl)ccc1O)c1ccc(Br)cc1,,"inconclusive [inhibitor, partial curve]"
NS(=O)(=O)c1ccc(NC(=O)COC(=O)c2c3c(nc4ccccc24)/C(=C\c2ccc4c(c2)OCO4)CCC3)cc1,,"inconclusive [activator, single point]"
C=C1CCC(O)C/C1=C\C=C1/CCCC2(C)C1CCC2C(C)/C=C/C(C)C(C)C (centres undefined),inactive: 4.26% [at 21.7 µM],
O=C(c1nc2ccccn2c1CNCCCn1nnc2ccccc21)N1CCOCC1,inactive: 1.21%,
Cc1ccc(C)n1-c1cccc(C(=O)O)c1,,"inconclusive [inhibitor, partial curve]"
Cc1nc(-c2ccc(Cl)cc2)sc1C1(C)CC(c2cccc(F)c2)=NO1 (centres undefined),,"inconclusive [activator, partial curve]"
c1ccc(-c2nc3nonc3nc2-c2ccccc2)cc1,,"inconclusive [inhibitor, partial curve]"
Nc1c(C(=O)N2CCCC2)sc2nc(-c3ccccc3)ccc12,,"inconclusive [activator, partial curve]"
COc1ccc(Nc2cnn(-c3nc4ccccc4s3)c(=O)c2Cl)cc1,,"inconclusive [inhibitor, partial curve]"
CC(=O)Nc1cccc(NC(=O)C(=O)c2cn(CC(=O)N3CCCCC3)c3ccccc23)c1,inactive: -1.3%,
